Source: PubChem BioAssay AID493208 (National Center for Advancing Translational Sciences (NCATS), 2011)
The whole screen tested about 44,000 compounds, of which about 340 (0.77%) were called active. Roughly 5% stayed inconclusive and do not appear here. Calls come from the whole dose curve; as a rule, active = well fitted inhibition curve with a large enough effect; inconclusive = small, poorly fitted or top-dose-only effect; inactive = flat fitted curve, though single readings scatter. This is one part of the list.

Test: Acumen qHTS Assay for Inhibitors of the mTORC1 Signaling Pathway in MEF (Tsc2-/-, p53-/-) Cells: Sytravon; note: nearly all actives have a fitted effect of over 50% in size;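 for activity change, negative = inhibition: plate controls were DMSO for no effect and rapamycin for full effect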
Conditions: phospho-rpS6 immunofluorescence/PI, 24 h; series mostly up to 38.3 µM; activity change, negative = inhibition: at the top concentration
Procedure, shortened: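 Compounds act on Tsc2-/-, p53-/- fibroblasts carrying an empty vector for 24 h before fixation and dual staining for phospho-S6 and DNA (propidium iodide). Values are percentages of cells above a rapamycin-defined pS6/PI threshold.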
Potency is the fitted concentration of half-maximal effect.

Activity change, negative = inhibition, inactive:
Cc1ccc2nc(COc3cccc(NC(=O)c4ccccc4Cl)c3)cc(=O)n2c1 0.719%, CCc1ccc(-c2nc(CS(=O)CC(=O)NCCc3ccc(C)cc3)c(C)o2)cc1 (stereo not given) -0.574%, CCOc1ccc(N(C)C(=O)c2oc(=O)c3ccccc3c2-c2ccccc2)cc1 -2.36%, CC(C)c1cnc2c(c1SCC(=O)NC(C)(C)C)c(=O)n(C)c(=O)n2C 8.44%, O=C(O)CC1c2ccccc2CCN1C(=O)Nc1cc(Cl)ccc1Cl (stereo not given) 0%, CCn1cc2c(n1)-c1c(oc(C(=O)Nc3ccc(Br)cc3F)c1C)CC2 -3.1%, Cc1ccc(N(CC(=O)N2CCN(c3cc(C)ccc3C)CC2)S(=O)(=O)c2c(C)nn(C)c2C)cc1 -5.46%, CCOC(=O)c1noc2nc(C)n(CC(=O)Nc3cccc(OC)c3)c(=O)c12 0.148%, Cc1ccc(CN(C(=O)c2ccc(OCC(C)C)cc2)c2ccccn2)o1 -8.08%, Cc1cc(Cl)ccc1-n1c(CCC(=O)O)ccc1-c1cccs1 -2.09%, CCCCC1CCC(C(=O)N2CC(=O)Nc3ccc(Br)cc3C2c2ccc(F)cc2)CC1 (stereo not given) -17.3%, CCc1ccc(S(=O)(=O)c2nnn3c2nc(N2CCN(c4ccccc4)CC2)c2cc(Cl)ccc23)cc1 1.96%, Cc1cccc2c1-c1sc(C(=O)Nc3ccc(F)cc3F)cc1CO2 -10.5%, CCc1c(C)c2ccc(O)c(CN3CCN(c4cc(Cl)ccc4C)CC3)c2oc1=O 1.03%, CCN(CC)C(=O)Cn1c(=O)n(CCCCCC(=O)NCc2ccc3c(c2)OCO3)c(=O)c2sccc21 1.33%, O=c1c2sc3ccccc3c2n(Cc2cccc(F)c2)c(=O)n1CCc1ccccc1 3.18%, CCC(=O)OCc1cc(=O)n2nc(C3CC3)sc2n1 -0.0754%, Cc1ccc(CNC(=O)C(=O)Nc2c3c(nn2-c2ccc(F)cc2)CSC3)cc1 -7.99%, Cc1ccc(NC(=O)CN2C(=O)COc3ccc(S(=O)(=O)N4CCCCCC4)cc32)c(C)c1 4.31%, Cc1ccc(CNC(=O)c2ccc(N3CCCC3)c(NC(=O)Nc3ccc(C)cc3)c2)cc1 0%, CCCc1cc(=O)oc2c3c(ccc12)OCN(Cc1ccccc1OC)C3 -11.7%, CN(C(=O)Cn1nc(Cc2cccnc2)c2ccccc2c1=O)c1cccc(C(F)(F)F)c1 -11.3%, COC(=O)c1ccccc1NC(=O)[C@H]1O[C@@H]2OC(C)(C)O[C@@H]2[C@H]2OC(C)(C)O[C@H]21 -0.766%, Cc1cc(C)cc(OCC(=O)Nc2cccc3cccnc23)c1 -2.67%, CCCc1cnc2c(c1SCC(=O)NCc1ccc(C)cc1)c(=O)n(C)c(=O)n2C 2.99%, CCCCCCC(=O)Nc1ccc2nc3c(=O)n(C)c(=O)n(C)c3nc2c1C 7.04%, O=C(c1ccc2c(c1)N(Cc1ccc(Cl)cc1)C(=O)c1ccccc1S2(=O)=O)N1CCCC1 0.456%, CCOC(=O)c1ccc(N2C(=O)c3n[nH]c(-c4ccco4)c3C2c2ccc(C(=O)OC)cc2)cc1 (stereo not given) -16.8%, CC(=O)Nc1cccc(-c2nc(-c3ccccc3)no2)c1 1.27%, COc1ccccc1CCNC(=O)Cc1c(C)c2cc(Cl)c(O)cc2oc1=O -2.01%, CCCCOc1ccccc1C1CC(=O)Nc2ccc3ccccc3c21 (stereo not given) -22.8%, CC(C)c1ccc(S(=O)(=O)N2CCN(Cc3cccc(F)c3)CC2)cc1 -18.1%, CCOc1ccc(CNC(=O)c2oc3c(c2C)-c2nn(Cc4cccc(Cl)c4)cc2CC3)cc1 7.48%, COc1ccc(C)c2sc(NC(=O)c3ccc(S(=O)(=O)N(C)C)cc3)nc12 5.23%, CCOc1ccc(-c2cccc(NS(=O)(=O)c3ccc(C)s3)c2)nn1 -0.419%, CCCCN(CC)C(=O)CSc1nc2n[nH]c(C)c2c(=N)n1-c1ccc(CC)cc1 0.0765%, CCOC(=O)C1CCN(C(=O)c2cc3sc(C)cc3n2C)CC1 -4.61%, Cc1ccc(N(C)C(=O)c2sc3nc4n(c(=O)c3c2C)CCCC4)cc1C 3.46%, COc1ccc(NC(=O)CSc2ncc3c(n2)-c2ccccc2N(Cc2ccc(C)cc2)S3(=O)=O)cc1Cl -19.8%, COCCCn1c(=O)c2sccc2n2c(CCCC(=O)NCc3cccc(OC)c3)nnc12 3.34%, CCOC(=O)C1CCN(C(=O)c2ccccc2NC(=O)c2nsc3ccccc23)CC1 5.07%, CCOc1ccc(NS(=O)(=O)c2c(C)nc3sc(C)c(C)n3c2=O)cc1 -4.26%, CCN1C(=O)c2ccccc2S(=O)(=O)c2ccc(C(=O)NCc3ccccc3)cc21 -10.2%, CCOC(=O)C1CCC(CN(Cc2ccc(Cl)cc2)S(=O)(=O)c2cccc(Cl)c2C)CC1 (stereo not given) 10.7%, Cc1nc2nc(NC(=O)c3ccc(C(C)(C)C)cc3)[nH]n2c(=O)c1C -8.12%, CCCCOc1ccc(C(=O)Nc2ccc3c(c2)CCCN3C(=O)c2cccs2)cc1 5.93%, O=C(CCC1N=C2c3ccccc3N=C(SCC(=O)Nc3cccc(Cl)c3)N2C1=O)NCc1ccco1 (stereo not given) -11.5%, NC(=O)C1CCN(S(=O)(=O)c2cc3c(cc2Cl)NC(=O)CO3)CC1 -4%, CCc1ccc(OCC2c3cc(OC)c(OC)cc3CCN2C(=O)c2ccc(S(=O)(=O)N3CCCC3)cc2)cc1 (stereo not given) 7.21%, CCn1cc(C(=O)NCCCOC(C)C)c(=O)c2cc(S(=O)(=O)N3CCOCC3)ccc21 0.643%, Cc1cc(NC(=O)N2CCC(CN3CCCCCC3)CC2)ccc1Br -3.71%, O=C(Cn1ccc2cc(S(=O)(=O)N3CCCCCC3)ccc21)NCc1ccccc1Cl -7.05%, COc1cccc(NC(=O)c2c(C)nn(-c3cccc(C)c3)c2-n2cccc2)c1 -0.0384%, COc1cccc(CN2C(=O)CN(C3CCCCC3)C(=O)C2c2ccc(OC(C)C)c(OC)c2)c1 (stereo not given) 2.23%, COC(=O)c1ccc2c(=O)n(CCCCCC(=O)NCCc3ccccc3)c(=O)[nH]c2c1 -0.446%, CCC1Sc2ccccc2N(CC(=O)NCc2ccc(C)cc2)C1=O (stereo not given) 2.67%, O=S(=O)(c1ccc(Cl)cc1)c1nnn2c1nc(NC1CCCC1)c1sccc12 -3.79%, COc1ccc(C)cc1-n1c(-c2ccc(Cl)cc2)cc2c1CC(C)(C)CC2=O 1.08%, Cc1cccn2c(=O)c3cc(C(=O)NCC(C)C)sc3nc12 0.428%, COc1ccc(N2CCN(C(CNS(=O)(=O)c3ccc(OC)c(C)c3)c3ccco3)CC2)cc1 (stereo not given) -15.8%, Nc1c(C(=O)Nc2ccccc2Br)sc2nc(-c3cccs3)ccc12 -24.6%, O=C(CSc1nc2c([nH]c3ccccc32)c(=O)n1-c1ccccc1)Nc1ccc2c(c1)OCO2 -6.54%, COc1ccc(-c2nc(Cn3c(=O)cc(C)c4c(C)nn(-c5ccccc5)c43)c(C)o2)cc1OC -13.6%, Cc1ccc(-n2nc(C)c3c(C)c(CCC(=O)NC(C)c4ccccc4)c(C)nc32)cc1 (stereo not given) -5.76%, Cc1ccc(NC(=O)Cn2c(=O)n(-c3ccc(C)cc3)c(=O)c3c2cnn3C)cc1 0.398%, Cc1ccc(Cc2nc3ccccc3nc2SCC(=O)N2CCC(C)CC2)cc1 1.2%, Cc1ccc(CNC(=O)c2ccc(CSc3nc4ccncc4n3Cc3ccc(C)cc3)cc2)cc1 5.44%, COc1cccc(C(=O)Nc2ccc3nc(SCC(=O)N(C)c4ccccc4)sc3c2)c1 -7.6%, CCOc1ccc(NC(=O)c2c(C)oc3nc(C)nc(N4CCCC4)c23)cc1 7.89%, O=C(NCCc1ccc(Cl)cc1)C1CCN(Cc2cc3ccccc3n2Cc2ccccc2)CC1 -9.2%, COc1ccc(CCNC(=O)CCc2cn(Cc3ccccc3Cl)c3ccccc23)c(OC)c1 -4.36%, CCOc1ccc(-c2cc(NC(=O)c3ccccc3)c(C(=O)OC)s2)cc1 1.17%, COc1ccccc1CCNC(=O)c1cccn1-c1nnc(N2CCCC2)s1 1.22%, CCCN(C(=O)c1cc(S(=O)(=O)N2CCc3ccccc32)cn1C)c1ccc(OCC)cc1 0%, Cc1ccc(Cl)cc1N1CCN(c2ncnc3c2nc2n3CCCC2)CC1 5.03%, Cc1ccccc1NC(=O)C(=O)NCC(c1ccc2c(c1)OCO2)N1CCN(c2ccccc2)CC1 (stereo not given) -14.1%, COc1ccc(CNC(=O)Cn2c(=O)oc3cc(S(=O)(=O)NCc4ccccc4)ccc32)cc1 -13.2%, CCOc1ccc(C2C(C(=O)Nc3ccccc3)=C(C)Nc3nc(-c4ccccc4Cl)nn32)cc1OC (stereo not given) -5.25%, CCOc1ccc(Nc2cc(C)nc3nncn23)cc1 2.9%, COc1ccc(NC(=O)c2cc3c(-c4ccccc4F)nn(C)c3s2)c(OC)c1 -0.063%, Cc1ccccc1NC(=O)Cn1cc(S(=O)(=O)c2ccccc2)c(=O)c2ccccc21 -6.37%, FC(F)(F)c1cccc(N2CCN(c3ncnc4c3nc3n4CCCC3)CC2)c1 0.222%, O=C(Cn1nc(C(F)(F)F)c2c1CCCC2)Nc1cccc(Cl)c1 -17.8%, Cc1ccccc1OCC(=O)Nc1cccc(C(=O)OCc2cc(=O)n3c(C)csc3n2)c1 3.85%, COC(=O)c1ccccc1NC(=O)c1cc2cc(C)ccc2n1C -6.64%, CCOc1ccc(-c2c(C)nn3c(C)c(C(=O)NCCc4ccc(Cl)cc4)cnc23)cc1OCC 0%, O=C(Cn1c(=O)n(-c2ccc(Cl)cc2)c(=O)c2sc3ccccc3c21)NC1CCCC1 2.34%, c1ccc(CN2CCN(c3ncnc4c3cnn4-c3ccccc3)CC2)cc1 13.7%, CCc1nc2cccnc2n1-c1ccc(CC(=O)Nc2cccc(C)c2C)cc1 -6.15%, CCc1cccc(NC(=O)C2CCC(CNS(=O)(=O)c3ccc(Br)s3)CC2)c1 (stereo not given) -18.3%, Cc1ccc(NC(=O)c2cc(S(=O)(=O)N3CCc4ccccc43)cn2C)c(Cl)c1 -22.5%, CCc1ccc(-n2nc(CO)c(C(=O)NCCCc3ccccc3)n2)cc1 0.277%, Cc1ccc(C)c(S(=O)(=O)c2nnn3c2nc(NC2CCCCC2)c2sccc23)c1 -16.5%, Cc1ccccc1Cn1c2ccccc2c2cnn(CC(=O)NCc3ccccn3)c(=O)c21 0.944%

Potency, active:
CCSc1ccccc1C(=O)Nc1ccc(-c2nc3ccccc3s2)c(O)c1 2.93 µM
